One assay concerns the target GST-pUL51 (HSV-1) (UniProt P10235). The assay is described as follows: pull-down.
For another assay, the target named is T1, GST-pUL7 (HSV-1) (UniProt P10191).
T1 sequence: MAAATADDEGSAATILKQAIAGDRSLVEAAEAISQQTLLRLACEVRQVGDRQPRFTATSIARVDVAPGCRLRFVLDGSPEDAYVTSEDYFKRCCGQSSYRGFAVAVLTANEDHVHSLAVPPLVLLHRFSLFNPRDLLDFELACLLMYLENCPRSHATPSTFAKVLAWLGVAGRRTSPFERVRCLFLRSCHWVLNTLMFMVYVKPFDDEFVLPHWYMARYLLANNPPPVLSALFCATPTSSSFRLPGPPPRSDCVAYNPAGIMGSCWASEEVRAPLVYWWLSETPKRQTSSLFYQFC
The assay is described as follows: pull-down.

The target of assay [1] is T2, yellow fluorescent protein (YFP)-tagged pUL7 (HSV-1 strain KOS) (UniProt P10191).
T2 sequence: T1 sequence
Nature of the assay: co-IP.

The target in assay [2] is T3, pUL7-GST (HSV-1 strain KOS) (UniProt P10191).
T3 sequence: T1 sequence
Nature of the assay: pull-down; both purified.

Another assay concerns the target pUL51 (HSV-1 strain KOS) (UniProt P10235). The assay is described as follows: co-IP.

Results are given in words; binding and its absence hold for the method and conditions named. For some of these results: In cells and extracts the contact can be indirect. Some results given as binding are weak or reduced against the parent protein; the word gives no strength. For some of these results: Sequences can lack the tags named with a protein.

For GFP-pUL48 (from UniProt P06492 1-490), the binding result with GST-pUL51 (HSV-1) and with GST-pUL7 (HSV-1) was “no binding” each time.

In the case of pUL51 (from UniProt P10235 1-244), the binding result in assay [1] is on record as “binds”. Regarding “His6-pUL51(29-170) (from UniProt P10235 29-170) (domain or fragment)”, the binding entry in assay [2] is on record as “binds”. Turning to GFP-pUL51 (from UniProt P10235 1-244), the binding entry in the assay with GST-pUL7 (HSV-1) is reported as “binds”.

B1: GFP-pUL7 (protein, UniProt P10191 1-296)
chain: T1 sequence
In the case of B1, the binding entry with GST-pUL51 (HSV-1) is reported as “binds”.

B2: pUL7 (protein, UniProt P10191 1-296)
chain: T1 sequence
With B2, in the assay with pUL51 (HSV-1 strain KOS), the binding entry is reported as “binds”.

For the origin of these results see article PMC5215335.
